In article PMC8287938, “Identification and structural analysis of the Schizosaccharomyces pombe SMN complex” (Nucleic Acids Research, 2021):
These are yes or no findings as the source states them, for the method shown. For part of these data: Binding seen in cells or lysates may run through a third protein. Some entries that bind do so weakly or less than the wild type. For part of these data: Sequences can lack the tags named with a protein. Values belong to the molecule of their own block, whether it stands above or below them.

Amino acid sequences for entries named in this document (tags omitted). A change or cut given only in a name is not applied to a line headed by its entry. Chains listed by the source or under a name are the forms on record and can include a tag or linker. Residues count along the entry.
MBP-Hs-YG-domain^252–284 (wt) (Q16637, residues 252-284): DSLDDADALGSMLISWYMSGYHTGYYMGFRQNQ
MBP-Hs-YG-domain^252–284 S266P (Q16637, form named): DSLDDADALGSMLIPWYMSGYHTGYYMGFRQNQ
MBP-Hs-YG-domain^252–284 Y272C (Q16637, form named): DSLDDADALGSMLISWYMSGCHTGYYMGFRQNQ
MBP-Hs-YG-domain^252–284 H273R (Q16637, form named): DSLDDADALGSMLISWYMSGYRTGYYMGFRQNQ
MBP-Hs-YG-domain^252–284 T274I (Q16637, form named): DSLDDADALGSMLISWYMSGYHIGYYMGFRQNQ
MBP-Hs-YG-domain^252–284 M263T (Q16637, form named): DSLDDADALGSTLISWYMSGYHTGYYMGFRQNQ
MBP-Hs-YG-domain^252–284 M263R (Q16637, form named): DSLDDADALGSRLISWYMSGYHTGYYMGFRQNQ
UniProt Q8WXD5, residues 1-92: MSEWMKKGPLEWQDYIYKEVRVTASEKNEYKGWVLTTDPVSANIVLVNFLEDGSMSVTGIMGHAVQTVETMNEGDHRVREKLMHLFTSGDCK

Columns and labels:
HsG7^46–131 = molecular target: T1, HsG7^46–131 (human, UniProt Q9H840 46-131); assay: crystal structure; HsG6 1–92/HsG7 46–131/HsG8 190–230, 1.52 Å, PDB 7BBL; both purified
T1 construct: human Gemin7, residues 46-131 (residues 47-131 in the model); also called human Gemin7 46-131; His6-HsG7^46–131; source: E. coli BL21(DE3), co-expressed with HsG6 1-92, purified
T1 sequence (looked up): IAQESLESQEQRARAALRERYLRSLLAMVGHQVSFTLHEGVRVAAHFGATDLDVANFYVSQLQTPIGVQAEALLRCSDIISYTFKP

His6-SpSMN (S. pombe) = molecular target: T2, His6-SpSMN (S. pombe) (UniProt Q09808); assay: pull-down; co-expression in E. coli from polycistronic constructs, Ni-NTA purification through the His6-tagged subunit, SDS-PAGE
T2 sequence: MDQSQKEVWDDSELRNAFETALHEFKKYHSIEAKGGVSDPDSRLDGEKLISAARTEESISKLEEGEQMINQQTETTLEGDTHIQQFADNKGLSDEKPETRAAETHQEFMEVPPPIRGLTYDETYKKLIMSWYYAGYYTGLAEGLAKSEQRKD

[1] = molecular target: T3, SpSMN (two-hybrid fusion) (S. pombe) (UniProt Q09808); assay: two-hybrid; pASΔΔ baits in CG1945 mated with pACT2st preys in Y187; growth on –Trp–Leu–His plates, 30°C, 3–5 days
T3 sequence: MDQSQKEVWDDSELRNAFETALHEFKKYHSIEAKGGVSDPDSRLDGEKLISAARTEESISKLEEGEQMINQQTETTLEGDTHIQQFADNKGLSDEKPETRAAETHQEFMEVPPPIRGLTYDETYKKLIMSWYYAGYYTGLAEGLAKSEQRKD

[2] = molecular target: T4, His6-SpG2^ΔN80 (S. pombe) (UniProt P0CU08); assay: pull-down; co-expression in E. coli from polycistronic constructs, Ni-NTA purification through the His6-tagged subunit, SDS-PAGE
T4 sequence: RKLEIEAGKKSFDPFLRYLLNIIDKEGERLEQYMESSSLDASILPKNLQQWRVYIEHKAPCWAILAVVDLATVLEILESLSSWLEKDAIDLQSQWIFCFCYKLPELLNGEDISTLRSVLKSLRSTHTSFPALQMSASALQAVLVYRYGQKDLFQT

His6-SpG2 (S. pombe) = molecular target: T5, His6-SpG2 (S. pombe) (UniProt P0CU08); assay: as above
T5 sequence: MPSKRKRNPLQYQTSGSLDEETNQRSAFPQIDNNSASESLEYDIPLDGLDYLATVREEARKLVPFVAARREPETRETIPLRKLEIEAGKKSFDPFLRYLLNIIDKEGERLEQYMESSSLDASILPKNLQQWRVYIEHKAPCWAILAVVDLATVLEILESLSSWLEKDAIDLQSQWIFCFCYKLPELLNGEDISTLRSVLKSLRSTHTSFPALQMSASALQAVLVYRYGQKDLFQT

[3] = molecular target: MBP-Hs-YG-domain^252–284 S266P (human) (UniProt Q16637); assay: pull-down; MBP fusion proteins immobilized on Amylose resin, in vitro translated [35S]-HsG8; HEPES pH 7.0, 150 mM NaCl, 2 mM DTT, 4°C, 3 h; wash with 300 mM NaCl; autoradiography; only the target purified
[4] = molecular target: MBP-Hs-YG-domain^252–284 (wt) (human) (UniProt Q16637); assay: as above
[5] = molecular target: MBP-Hs-YG-domain^252–284 Y272C (human) (UniProt Q16637); assay: as above
[6] = molecular target: MBP-Hs-YG-domain^252–284 H273R (human) (UniProt Q16637); assay: as above
[7] = molecular target: MBP-Hs-YG-domain^252–284 T274I (human) (UniProt Q16637); assay: as above
[8] = molecular target: MBP-Hs-YG-domain^252–284 M263T (human) (UniProt Q16637); assay: as above
[9] = molecular target: MBP-Hs-YG-domain^252–284 M263R (human) (UniProt Q16637); assay: as above

Molecule: HsG6^1–92 (from UniProt Q8WXD5 1-92) (domain or fragment)
binding (HsG7^46–131): binds

B2: SpG2 (two-hybrid fusion) (protein, UniProt P0CU08 1-235)
chain: MPSKRKRNPLQYQTSGSLDEETNQRSAFPQIDNNSASESLEYDIPLDGLDYLATVREEARKLVPFVAARREPETRETIPLRKLEIEAGKKSFDPFLRYLLNIIDKEGERLEQYMESSSLDASILPKNLQQWRVYIEHKAPCWAILAVVDLATVLEILESLSSWLEKDAIDLQSQWIFCFCYKLPELLNGEDISTLRSVLKSLRSTHTSFPALQMSASALQAVLVYRYGQKDLFQT
binding [1]: binds

B4: His6-HsG8 (full length), [35S]-labeled (protein, UniProt Q9NWZ8 1-242)
chain: MAAVKASTSKATRPWYSHPVYARYWQHYHQAMAWMQSHHNAYRKAVESCFNLPWYLPSALLPQSSYDNEAAYPQSFYDHHVAWQDYPCSSSHFRRSGQHPRYSSRIQASTKEDQALSKEEEMETESDAEVECDLSNMEITEELRQYFAETERHREERRRQQQLDAERLDSYVNADHDLYCNTRRSVEAPTERPGERRQAEMKRLYGDSAAKIQAMEAAVQLSFDKHCDRKQPKYWPVIPLKF
modifications: [35S]-methionine labeled
binding [3]: no binding
binding [4]: binds
binding [5]: binds
binding [6]: no binding
binding [7]: binds
binding [8]: binds
binding [9]: binds

Next, values leading:

binding (His6-SpSMN (S. pombe)): binds
B1: SpG2 (untagged, E. coli) (protein, UniProt P0CU08 1-235)
chain: MPSKRKRNPLQYQTSGSLDEETNQRSAFPQIDNNSASESLEYDIPLDGLDYLATVREEARKLVPFVAARREPETRETIPLRKLEIEAGKKSFDPFLRYLLNIIDKEGERLEQYMESSSLDASILPKNLQQWRVYIEHKAPCWAILAVVDLATVLEILESLSSWLEKDAIDLQSQWIFCFCYKLPELLNGEDISTLRSVLKSLRSTHTSFPALQMSASALQAVLVYRYGQKDLFQT

binding [2]: binds
binding (His6-SpG2 (S. pombe)): binds
B3: SpSMN (untagged, E. coli) (protein, UniProt Q09808 1-152)
chain: MDQSQKEVWDDSELRNAFETALHEFKKYHSIEAKGGVSDPDSRLDGEKLISAARTEESISKLEEGEQMINQQTETTLEGDTHIQQFADNKGLSDEKPETRAAETHQEFMEVPPPIRGLTYDETYKKLIMSWYYAGYYTGLAEGLAKSEQRKD
